# “And” between values parts separate entries of the source, which are not always exact repeats. Equal values may be shown once. In all, about 420,000 compounds went through this assay and about 50,000 (12%) were called active. Inconclusive means that the source gave no clear call. Such entries were picked first, then a sample of the others. Calls follow the shape of the dose curve; as a rule, active = well fitted inhibition curve with a large enough effect; inconclusive = small, poorly fitted or top-dose-only effect; inactive = flat fitted curve, though single readings scatter. Potencies beside an inconclusive call are fits to weak or partial responses and may not hold up.
# Experiment: qHTS for Inhibitors of human tyrosyl-DNA phosphodiesterase 1 (TDP1): qHTS in cells in presence of CPT; also: nearly all actives have a fitted effect of over 55% in size
# Conditions: chicken DT40 Tdp1-/-;hTDP1 cells + 20 nM CPT, ATP luminescence, 48 h; series mostly up to 46.2 µM
# How it was run: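 Cell growth measured by CellTiter-Glo luminescence after a minimum 48 h, 37 C compound exposure with 20 nM CPT in Tdp1-knockout DT40 cells stably expressing hTDP1, seeded 400/well; qHTS titration format.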
# Potency is read from the fitted curve at half-maximal effect; tags tell the direction and shape of the fitted curve.
row,Structure (SMILES),Potency
1,COCC(=O)N(C)C1(c2nnnn2CCOC(=O)Nc2ccc(Cl)cc2)CCCC1,inactive
2,O=S(=O)(CCNCCc1ccccc1)NCc1ccccc1,inactive
3,COc1ccc(N2CCN(c3cc(C)c4cccc(C)c4n3)CC2)cc1,"inconclusive: 16.4 µM [inhibitor, single point]"
4,NC(=O)c1ccc(NC(=O)c2cncn2-c2ccccc2)cc1,"inconclusive: 25.9 µM [inhibitor, single point]"
5,Cn1c(SCC(=O)N2CCN(S(=O)(=O)c3ccccc3)CC2)nc2ccccc21,inactive
6,C=CCn1c(=NC(=O)c2cc(-c3cccs3)nc3ccccc23)sc2cc(S(N)(=O)=O)ccc21,"inconclusive: 23.1 µM [inhibitor, single point]"
7,CCOCCCNC(=O)CN1CCN(Cc2ccc(Cl)cc2)C1=O,inactive
8,Cc1onc(-c2ccccc2)c1C(=O)Nc1sc2c(c1C#N)CCC2,active: 29.1 µM
9,CCc1ccc(OCc2nnc(SCC(=O)Nc3cccc(C(=O)N4CCOCC4)c3)o2)cc1,inactive
10,COc1cc(C(C(=O)NC2CCCC2)N(CCO)C(=O)Cn2nnc(-c3ccc(C)o3)n2)ccc1O (stereo not given),inactive
11,CCC1CCc2sc(C(=O)O)cc2C1 (stereo not given),inactive
12,CCOC(=O)c1cnc2ccc(OC)cc2c1Nc1cccc(C(C)=O)c1,active: 16.4 µM
13,O=C(C[C@H]1C(=O)N(c2ccc(Br)cc2)C[C@@H]1Cc1ccccc1)Nc1ccccc1,"inconclusive: 16.4 µM [inhibitor, partial curve, poor fit]"
14,CCCCCCN1CCN(C2CN(Cc3ccc([N+](=O)[O-])cc3)S(=O)(=O)C2)CC1 (stereo not given),"inconclusive: 25.9 µM [inhibitor, single point]"
15,COc1ccccc1N1CCN(/N=C/c2cc(Br)ccc2F)CC1,"inconclusive: 23.1 µM [inhibitor, single point]"
16,O=S(=O)(Nc1nc2ccccc2nc1NCC1CCCO1)c1cc(Cl)ccc1Cl (stereo not given),inactive
17,CC(C)(C)[C@H]1CCC(=O)N([C@H](CC#N)Cc2ccccc2)CC1,"inconclusive: 25.1 µM [inhibitor, single point] and inconclusive: 23.1 µM [inhibitor, single point]"
18,Cc1ccc2nc(-c3cccc(Br)c3)cc(C(=O)NC3CC3)c2c1,"inconclusive: 4.11 µM [inhibitor, full curve]"
19,COc1ccccc1-c1nnc(SCC(=O)c2ccc(C3CCCCC3)cc2)n1Cc1ccco1,active: 23.1 µM
20,COc1ccc(-n2nc(C(=O)NCC(=O)N3CCN(c4ccccc4OC)CC3)c3ccccc3c2=O)cc1OC,"inconclusive: 29.1 µM [inhibitor, single point]"

# Source: PubChem BioAssay AID686979 (National Center for Advancing Translational Sciences (NCATS), 2013)
